Experimental data published in the supplement of paper PMC9446081.
Out of some 39,000 compounds screened, about 220 (0.56%) showed activity. The list shows a part of the results.

test system: Escherichia coli K-12 BW25113; test: relative growth (OD600 normalised to plate interquartile mean) (fraction); higher = less growth inhibition, active = 0.2 or less; settings: 50 µM; LB; incubation time: overnight (16-24 h)
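Also: static incubation at 37 °C against the wild-type strain, values averaged over two biological replicates.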

| SMILES | relative growth |
| --- | --- |
| COCCNc1cc(NC(=O)N2CCCc3cc(CN4CCN(C)CC4=O)c(C=O)nc32)ncc1C#N | inactive: 1.05 |
| COc1cccc(C(=O)Nc2ccc3c(c2)C(=O)N(C)[C@@H]2CC[C@H](CC(=O)NCC(F)(F)F)O[C@@H]2CO3)c1 | inactive: 0.96 |
| CC(C)N1CC=C[C@@]23O[C@@H]4C=CCOC(=O)[C@@H]4[C@H]2C(=O)N(CCCCCO)[C@@H]3C1=O | inactive: 1.04 |
| C[C@@H]1CN([C@@H](C)CO)C(=O)c2cccc(NS(=O)(=O)c3cn(C)cn3)c2O[C@@H]1CN(C)S(=O)(=O)c1cn(C)cn1 | inactive: 1.01 |
| O=S(=O)(Nn1cnnc1)c1ccccc1 | inactive: 1.02 |
| C[C@@H]1CCCCO[C@@H](CN(C)Cc2ccc(C(F)(F)F)cc2)[C@@H](C)CN([C@H](C)CO)C(=O)c2cc(NC(=O)CCC(F)(F)F)ccc2O1 | inactive: 0.973 |
| C[C@H](CO)N1C[C@H](C)[C@H](CN(C)C(=O)Nc2cccc(F)c2)OCc2ccccc2-c2ccccc2C1=O | inactive: 0.971 |
| CC(C)NC(=O)Nc1cccc2c1O[C@@H](CN(C)S(=O)(=O)c1cccs1)[C@@H](C)CN([C@@H](C)CO)C2=O | inactive: 0.908 |
| C[C@H](CO)N1C[C@H](C)[C@@H](CN(C)C(=O)NC2CCCCC2)Oc2ccc(NC(=O)Cn3cnnn3)cc2C1=O | inactive: 1 |
| O=C/C=C/c1ccccc1Cl | inactive: 0.934 |
| Cn1cnc(CCNC(=O)C[C@H]2CC[C@H]3[C@@H](COC[C@H](O)CN3C(=O)Nc3ccc(Cl)cc3)O2)c1 | inactive: 0.938 |
| CCS(=O)(=O)N1C[C@]2(CN(C2)S(=O)(=O)c2cn(cn2)C)c2c(n(c3cc(ccc23)OC)C)[C@H]1CO | inactive: 1.01 |
| CC(C)(C)OC(=O)C[C@H]1CC=CC[C@H](CC(=O)NCCO)C(=O)N[C@@H](Cc2c[nH]c3ccccc23)COC1=O | inactive: 1.01 |
| C[C@H]1CN([C@@H](C)CO)C(=O)Cc2cc(NC(=O)C3CC3)ccc2O[C@H]1CN(C)S(=O)(=O)c1ccccc1 | inactive: 0.99 |
| C[C@@H]1CN([C@H](C)CO)C(=O)c2cc(NC(=O)CCCN(C)C)ccc2O[C@@H](C)CCCCO[C@@H]1CN(C)CC1CCCCC1 | inactive: 0.992 |
| COc1ccc2c3c(n(c2c1)C)[C@@H](CO)N(C[C@]13CN(C1)C(=O)C1CCOCC1)C(=O)C1CCOCC1 | inactive: 1 |
| CCS(=O)(=O)N1C[C@]2(C1)CN([C@@H](CO)c1c2c2ccc(cc2n1C)OC)S(=O)(=O)c1ccccc1 | inactive: 0.999 |
| Cc1noc(C)c1NC(=O)N(C)C[C@H]1Oc2ccc(NS(=O)(=O)c3cccs3)cc2CC(=O)N([C@@H](C)CO)C[C@@H]1C | inactive: 1.01 |
| C[C@@H]1CCCCO[C@H](CN(C)S(=O)(=O)c2ccc(Cl)cc2)[C@@H](C)CN([C@H](C)CO)C(=O)c2cc(NC(=O)c3ccncc3)ccc2O1 | inactive: 1.01 |
| C=CCNC(=O)[C@H]1[C@@H]2C(=O)O[C@@H](c3ccccc3)[C@@H](c3ccccc3)N2[C@@H](c2ccc(O)cc2)[C@]12C(=O)N(C(=O)OCCOC)c1ccc(C#Cc3ccc(OC)cc3)cc12 | inactive: 1.05 |
| C[C@H](CO)N1C[C@H](C)[C@H](CN(C)Cc2ccc(C(=O)Nc3ccccc3N)cc2)Oc2ccc(NS(=O)(=O)c3cn(C)cn3)cc2CC1=O | inactive: 1.02 |

| SMILES | relative growth |
| --- | --- |
| C[C@@H]1CN([C@@H](C)CO)C(=O)c2cc(NC(=O)c3ccncc3)ccc2O[C@H]1CN(C)Cc1ccc2c(c1)OCO2 | inactive: 1.02 |
| CCS(=O)(=O)N1C[C@]2(CN(C2)C(=O)CN2CCOCC2)c2c(n(c3cc(ccc23)OC)C)[C@H]1CO | inactive: 1 |
| COc1ccc(NC(=O)N(C)C[C@H]2OCCCC[C@@H](C)Oc3ccc(NC(=O)Nc4ccc5c(c4)OCO5)cc3C(=O)N([C@H](C)CO)C[C@@H]2C)cc1 | inactive: 1 |
| Cn1nnnc1NCc1ccccc1 | inactive: 1 |
| C[C@@H]1CN([C@@H](C)CO)C(=O)c2cc(NS(=O)(=O)c3ccccc3)ccc2O[C@@H](C)CCCCO[C@@H]1CN(C)C(=O)C1CCCCC1 | inactive: 1.01 |
| NC(=O)c1cc[n+](CC2=C(C(=O)O)N3C(=O)[C@@H](NC(=O)Cc4cccs4)[C@H]3SC2)cc1 | inactive: 1.04 |
| CC(=O)OC1CCC2(C)C(CC(OC(C)=O)C3(C)C4=CC(=O)OC(c5ccoc5)C4(C)CCC23)C1(C)C (stereo not drawn) [3alpha-ACETOXYDIHYDRODEOXYGEDUNIN] | inactive: 1.02 |
| CCOC(=O)N(C)C[C@@H]1OCc2cn(nn2)CCCC(=O)N([C@@H](C)CO)C[C@H]1C | inactive: 0.987 |
| C[C@H]1CN([C@@H](C)CO)C(=O)c2c(c3ccccc3n2C)-c2ccccc2CO[C@@H]1CN(C)C(=O)Nc1ccc2c(c1)OCO2 | inactive: 0.981 |
| Cc1ccc(CSc2ncc(C(F)(F)F)cc2Cl)cc1 | inactive: 0.932 |
| C[C@@H]1CN([C@H](C)CO)C(=O)Cc2cc(NS(C)(=O)=O)ccc2O[C@@H]1CN(C)C(=O)Nc1ccc2c(c1)OCO2 | inactive: 0.979 |
| CC(S)C(=O)NCC(=O)O (stereo unspecified) | inactive: 0.906 |
| Cc1ccc(C(=N)N)n1C | inactive: 1.01 |
| C[C@H](O)C#Cc1ccc2c(c1)O[C@H](CN(C)C(=O)C1CCCCC1)[C@@H](C)CN([C@H](C)CO)S2(=O)=O | inactive: 0.98 |
| C[C@@H]1CN([C@@H](C)CO)C(=O)c2cc(N(C)C)ccc2O[C@@H](C)CCCCO[C@@H]1CN(C)Cc1ccc(C(=O)Nc2ccccc2N)cc1 | inactive: 0.992 |
| C[C@@H]1CCCCO[C@@H](CN(C)Cc2ccc(C(=O)O)cc2)[C@H](C)CN([C@H](C)CO)C(=O)c2cc(NC(=O)c3ccccc3)ccc2O1 | inactive: 0.977 |
| CC[C@@H](N)c1nc(C)c(C)s1 | inactive: 1.02 |
| C[C@@H]1CN([C@H](C)CO)C(=O)c2cc(N(C)C)ccc2O[C@H]1CN(C)S(C)(=O)=O | inactive: 0.982 |
| Nc1ncc2[nH]cnc2n1 | inactive: 0.996 |
| C[C@H]1CN([C@@H](C)CO)C(=O)c2cccc(NC(=O)C3CCOCC3)c2O[C@H]1CN(C)Cc1ccc(C(=O)O)cc1 | inactive: 0.972 |
| C[C@H]1CN([C@@H](C)CO)C(=O)c2cc(NC(=O)Nc3ccccc3)ccc2O[C@H]1CN(C)Cc1ccc(-c2ccccc2)cc1 | inactive: 1.02 |

| SMILES | relative growth |
| --- | --- |
| C[C@H]1CN([C@@H](C)CO)C(=O)c2cc(NC(=O)Nc3ccc(C(F)(F)F)cc3)ccc2O[C@@H]1CN(C)C(=O)Nc1ccc2c(c1)OCO2 | inactive: 1.01 |
| COc1ccc(S(=O)(=O)N(C)C[C@@H]2OCCCC[C@H](C)Oc3ccc(NC(=O)Nc4cccc5ccccc45)cc3C(=O)N([C@H](C)CO)C[C@H]2C)cc1 | inactive: 0.966 |
| C[C@H]1CN([C@@H](C)CO)C(=O)c2cc(NC(=O)NC3CCCCC3)ccc2O[C@@H]1CN(C)S(C)(=O)=O | inactive: 0.956 |
| C=CCOC(=O)N(C)C[C@@H]1OCCCC[C@H](C)Oc2ccc(NC(=O)Nc3ccccc3)cc2C(=O)N([C@@H](C)CO)C[C@H]1C | inactive: 0.982 |
| O=C(C[C@H]1C[C@H]2c3cc(NS(=O)(=O)c4ccc(F)cc4)ccc3O[C@H]2[C@@H](CO)O1)NCCN1CCCCC1 | inactive: 0.99 |
| C[C@@H]1CN([C@H](C)CO)C(=O)Cc2cc(NC(=O)Nc3cccc4ccccc34)ccc2O[C@@H]1CN(C)C(=O)Nc1cccc2ccccc12 | inactive: 1.03 |
| CC(C)N1CC=C[C@@]23O[C@@H]4C=CCCOC(=O)[C@@H]4[C@H]2C(=O)N([C@@H](C)CO)[C@@H]3C1=O | inactive: 1.02 |
| CC[N+](CC)(CC(=O)Nc1c(C)cccc1C)Cc1ccccc1.O=C([O-])c1ccccc1 | inactive: 1.01 |
| C[C@@H](O)C#Cc1ccc2c(c1)O[C@@H](CN(C)C(=O)c1ccncc1)[C@@H](C)CN([C@@H](C)CO)S2(=O)=O | inactive: 1.01 |
| CO[C@H]1CN(C)C(=O)c2cc(NS(C)(=O)=O)ccc2OC[C@@H](C)N(C(=O)c2ccc3c(c2)OCO3)C[C@H]1C | inactive: 0.986 |
| C[C@@H]1CCCCO[C@H](CN(C)C(=O)Nc2ccc3c(c2)OCO3)[C@H](C)CN([C@H](C)CO)C(=O)c2cc(NC(=O)Nc3ccc(C(F)(F)F)cc3)ccc2O1 | inactive: 0.996 |
| COc1ccc2c3c([nH]c2c1)[C@@H](CO)N(C[C@]13CCN(CC1)C(=O)Nc1ccc2c(c1)OCO2)C(=O)Nc1ccc(cc1)F | inactive: 1 |
| COc1ccc(NC(=O)N(C)C[C@H]2Oc3c(NC(=O)c4cc(C)nn4C)cccc3C(=O)N([C@H](C)CO)C[C@@H]2C)cc1 | inactive: 1 |
| COCC#Cc1cnc2c(c1)C(=O)N([C@H](C)CO)C[C@H](C)[C@@H](CN(C)C(=O)CCN1CCCCC1)O2 | inactive: 1.01 |
| NCCCC[C@@H](N)C(=O)N[C@@H](Cc1c[nH]c2ccccc12)C(=O)N[C@@H](CCCCN)C(=O)O | inactive: 0.994 |
| COc1ccc(S(=O)(=O)Nc2ccc3c(c2)C(=O)N([C@H](C)CO)C[C@H](C)[C@@H](CN(C)C(=O)Nc2ccc4c(c2)OCO4)OCCCC[C@H](C)O3)cc1 | inactive: 1.01 |
| C[C@@H]1CCCCO[C@@H](CN(C)C(=O)c2ccccc2)[C@@H](C)CN([C@H](C)CO)C(=O)c2cc(NS(=O)(=O)c3ccc(Cl)cc3)ccc2O1 | inactive: 0.982 |
| C[C@@H](O)[C@@H](O)[C@@H](O)C/C=N/NC(=O)c1ccccn1 | inactive: 0.996 |
| CC(C)NC(=O)Nc1ccc2c(c1)C(=O)N([C@H](C)CO)C[C@@H](C)[C@H](CN(C)C(=O)Nc1ccc(F)cc1)OCCCC[C@@H](C)O2 | inactive: 0.965 |
